The RNAGym collection of RNA variant scans (doi:10.1073/pnas.2313332121)
Variants at the background level are over-represented here.

B1: TPR 5TU (parent)
chain: GGAUCUUCUCGAUCUAACAAAAAAGACAAAUCUGCCACAAAGCUUGAGAGCAUCUUCGGAUGCAGAGGCGGCAGCCUUCGGUGGCGCGAUAGCGCCAACGUUCUCAACUAUGACACGCAAAACGCGUGCUCCGUUGAAUGGAGUUUAUCAUG

Variants of: B1
Assay: polymerase ribozyme fitness, log enrichment relative to wild type (log ratio); higher = more active; in vitro selection for triplet polymerase activity
How it was run: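 In triplicate, a single round of in vitro selection was run on each mutant library, PCR-built and transcribed, covering one subunit of a heterodimeric triplet polymerase ribozyme. Frozen incubation at −7 °C followed annealing with a biotinylated primer, partner subunit and triplets, and extended constructs were then gel-excised, streptavidin-captured and taken through RT-PCR. Fitness is the logarithm of genotype enrichment over wild-type enrichment, from inverse-variance-weighted replicate averages of Illumina-sequenced inputs and outputs. […] only genotypes with ≥10 input reads and ≥1 read per output were kept.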

Variant	polymerase ribozyme fitness (log ratio)
C8U A17G A23G G58C G94U A110C U111G	≤ -4.2
C8U A17G A29C G34A C57A G67C A73G U77G A91U A97G C125U	≤ -4.2
C8U A17G A30U C95U G126A U148G	≤ -4.2
C8U A17G U55G A60C C76A A89G C95G G128A U144C C149U	≤ -4.2
C8U A17U A142U C149U	≤ -4.2
C8U A17U U55A U56C A91G C93G U144C	≤ -4.2
C8U A19C A40G C57U G92U G140A U146A	≤ -4.2
C8U A19C C35G A37C U61C C76G C93A	≤ -4.2
C8U A19C G50A C96U	≤ -4.2
C8U A19C U33G U53A U55A C96G C108U	-3.8
C8U A19G G34C C85A	≤ -4.2
C8U A19U A24U G62A U82A	≤ -4.2
C8U A20C A49G U53A C95A A106G C118G	≤ -4.2
C8U A20G	-3.94
C8U A21C A28U U53A U77G G88U U145G A150C	≤ -4.2
C8U A21G A41C G50A G65C G88A	≤ -4.2
C8U A21U A22U A37C C85G C93U G117C G136A G141U U145G G152A	≤ -4.2
C8U A21U G92A	≤ -4.2
C8U A22C G25A A41U G59C C85G C87A A98U G100C C118A	≤ -4.2
C8U A22C G59A C75U G94A	≤ -4.2
C8U A22G A26U U56A G92U C116U	≤ -4.2

Variant	polymerase ribozyme fitness (log ratio)
C8U A22G A29U U44G A47C U78G C85G A98U A107C	≤ -4.2
C8U A22G C57A G67A G70C G80C C85U A137U	≤ -4.2
C8U A22U G34C G68A C69U C87A	≤ -4.2
C8U A23C C27U A37C U55A C72A G74A G94A U102G	≤ -4.2
C8U A24C C36U G48A C95G C105U U145A	≤ -4.2
C8U A24G A29U U56G C69G C76A C85U U101G U109G U111G	≤ -4.2
C8U A24G G42A G67C G71U G81A	≤ -4.2
C8U A24U U55G C69U G74U C87A A138U	≤ -4.2
C8U A26U A120G C125U	≤ -4.2
C8U A26U G83C G133A	≤ -4.2
C8U A28C C54U C87A A106G	≤ -4.2
C8U A28G A47C C72G U82A G83A C85G	≤ -4.2
C8U A28U C36G G58C G68A U102G U109A G117U C132U U148A	≤ -4.2
C8U A28U U53A G67A C69U G88C A89U A98G A138C	≤ -4.2
C8U A29G G62A C93U C95A U144A	≤ -4.2
C8U A30C C32U A52G C72U C93U A97G C108G U151A	≤ -4.2
C8U A30U C32U A64G C76A A97G A107U C108U A110G C116A	-4.12
C8U A30U U33A C63U G67C C118U	≤ -4.2
C8U A37C C93A U151G	≤ -4.2
C8U A37G A60U C63A G128U A137G G141A G143A	≤ -4.2
C8U A39G G86U U102C U111G U144C G152A	≤ -4.2

Variant	polymerase ribozyme fitness (log ratio)
C8U A40C U45A G83A C93A C99A C132G U148A	≤ -4.2
C8U A40U C51U G92A C105A A150C	≤ -4.2
C8U A40U U55G U56A	≤ -4.2
C8U A41G C103A	≤ -4.2
C8U A47C C54U C57U C85G C114U G140U	≤ -4.2
C8U A47U C79A C85U C93G G100A C118U C131U	≤ -4.2
C8U A49G G59C C69U U82G G92U	≤ -4.2
C8U A49U A52G	-3.79
C8U A49U C85A G141C	≤ -4.2
C8U A52G	-3.63
C8U A52G A89U C93U G94A G100A U135G	≤ -4.2
C8U A52U U56A U61A C75U C93U C99G C132G	≤ -4.2
C8U A60U A91C A119G U139G A142U G143C	≤ -4.2
C8U A91U	≤ -4.2
C8U A98U U135G U148C	≤ -4.2
C8U A107G	≤ -4.2
C8U C10A A23C G59U G88U	≤ -4.2
C8U C10G A29U C85U C116U	≤ -4.2
C8U C10G C35G C57A A66U G86U U134C U139C U148A	≤ -4.2
C8U C14A C27U A28C C57A G84U G140C	≤ -4.2
C8U C14G C18G G34A C93G G94U G126A	≤ -4.2

Variant	polymerase ribozyme fitness (log ratio)
C8U C14G C51U C75U U90G C96A A97G U148C	≤ -4.2
C8U C14G C76G C96U	≤ -4.2
C8U C14G G50C A106U A110G	≤ -4.2
C8U C14G U33G C51G C54U C57A U77G C87G G136U	≤ -4.2
C8U C14U A28U U53A G71A C87G C93U U134G A150C	≤ -4.2
C8U C18A A20C A23C G62C A89G G136U	≤ -4.2
C8U C18G G50C G58U A73G C76A C93A C116A A120C	≤ -4.2
C8U C18U A47C C85U G86A U90A G136A U148G	≤ -4.2
C8U C27A A29U A66U G67A A120U U134A	≤ -4.2
C8U C27G C54A C96G C118U A142C	≤ -4.2
C8U C27U A37C U55A C87G U111A C118G G124A	≤ -4.2
C8U C27U A115G	-4.06
C8U C32A	≤ -4.2
C8U C32A C85U	≤ -4.2
C8U C32G C35U G48U A73C G81A G92U	≤ -4.2
C8U C32G G84C A110G G152A	≤ -4.2
C8U C35U C57G A147G	≤ -4.2
C8U C35U G80A G83A U102G U145C U146C	≤ -4.2
C8U C36A G42C G50C C87U G133C	≤ -4.2
C8U C38A C75G C85G	≤ -4.2
C8U C38A G83A C87U U104G	≤ -4.2
